According to the supplement of paper PMC12217912:
The list shows a part of the results. Sequences were assembled here from the parent chain. Values near 0.05 are background.

B1: TEV protease; numbered along this chain (parent)
chain: MGESLFKGPRDYNPISSSICHLTNESDGHTTSLYGIGFGPFIITNKHLFRRNNGTLVVQSLHGVFKVKDTTTLQQHLVDGRDMIIIRMPKDFPPFPQKLKFREPQREERICLVTTNFQTKSMSSMVSDTSCTFPSGDGIFWKHWIQTKDGQCGSPLVSTRDGFIVGIHSASNFTNTNNYFTSVPKNFMELLTNQEAQQWVSGWRLNADSVLWGGHKVFMVKPEEPFQPVKEATQL

Variants of: B1
Assay: raw area under fraction-flipped curve 0-4 h after induction (AUC4h, not background-subtracted), DNA-recorder readout of cleavage of the substrate (dimensionless); higher = more cleavage of the substrate by the protease variant
Settings: temperature: 34 °C; time window: 0-4 h after rhamnose induction
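Note: Bxb1 expression induced with 0.2% (w/v) L-rhamnose at OD600 near 0.5, cultures sampled hourly, flipped fraction per protease–substrate barcode pair counted by paired-end Illumina sequencing.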

| Variant | area with substrate ENCYFQS | area with substrate ENDYFQS | area with substrate ENEYFQS | area with substrate ENFYFQS | area with substrate ENGYFQS | area with substrate ENIYFQS | area with substrate ENKYFQS | area with substrate ENNYFQS | area with substrate ENQYFQS | area with substrate ENRYFQS | area with substrate ENSYFQS | area with substrate ENTYFQS | area with substrate ENVYFQS | area with substrate ENWYFQS | area with substrate ENAYFQS | area with substrate ENPYFQS | area with substrate ENHYFQS | area with substrate ENMYFQS | area with substrate ENYYFQS |
| --- | --- | --- | --- | --- | --- | --- | --- | --- | --- | --- | --- | --- | --- | --- | --- | --- | --- | --- | --- |
| G37H | 0.0456 | 0.0579 | 0.0549 | 0.053 | 0.0572 | 0.0915 | 0.0655 | 0.0555 | 0.0544 | 0.0558 | 0.079 | 0.0589 | 0.0603 | 0.0709 | – | – | – | – | – |
| P228K | 0.0684 | 0.0643 | – | – | 0.0805 | 0.0963 | 0.0446 | 0.056 | 0.061 | – | 0.052 | 0.0561 | 0.0946 | – | 0.0337 | 0.0674 | – | – | – |
| P228L | – | 0.0466 | 0.0758 | 0.0431 | – | 0.117 | – | 0.0668 | 0.0524 | – | 0.051 | – | 0.0633 | 0.0525 | 0.0469 | – | – | – | – |
| P228M | 0.0763 | 0.0045 | 0.0586 | 0.0615 | – | 0.113 | – | 0.061 | – | 0.0571 | – | – | 0.086 | – | 0.0559 | – | 0.0617 | – | – |
| G214R | – | – | 0.0588 | 0.0607 | – | 0.0786 | – | 0.0582 | 0.0583 | 0.0471 | 0.0651 | 0.0667 | 0.0574 | 0.0528 | 0.0599 | 0.0519 | 0.054 | – | – |
| G214P | – | 0.0548 | 0.0356 | – | 0.049 | – | 0.0629 | 0.0589 | 0.0616 | – | 0.0746 | – | – | – | 0.0518 | 0.0542 | – | – | – |
| T233L | 0.0616 | 0.0498 | 0.0426 | 0.0518 | – | – | – | 0.0626 | 0.0693 | 0.0534 | 0.0503 | – | – | 0.033 | 0.0651 | 0.0676 | 0.0487 | 0.084 | 0.065 |
| G202T | 0.0412 | 0.0523 | – | – | – | 0.0817 | – | – | 0.0707 | 0.0787 | – | 0.0548 | – | 0.0636 | 0.0531 | – | – | – | – |
| N52E | 0.0664 | – | 0.0697 | 0.0625 | 0.0086 | 0.0815 | 0.0454 | 0.0453 | – | – | 0.0636 | 0.0231 | 0.0541 | – | – | – | – | – | – |
| W203I | 0.0632 | 0.0501 | 0.0897 | – | 0.075 | – | 0.0639 | 0.0569 | 0.0587 | 0.0674 | 0.0661 | – | – | – | 0.0566 | 0.0572 | – | – | – |
| Q234Y | 0.0691 | 0.0588 | 0.0704 | 0.0251 | 0.0674 | 0.11 | 0.0654 | 0.0684 | 0.0527 | 0.0572 | 0.0677 | 0.0896 | – | – | 0.0652 | – | 0.0593 | – | 0.0665 |
| F6I | 0.0689 | 0.0608 | 0.0546 | 0.0761 | 0.0891 | – | 0.0732 | – | 0.0593 | – | 0.11 | – | 0.0862 | 0.0692 | – | – | – | – | – |
| K221W | 0.0654 | 0.0636 | 0.0697 | – | 0.0614 | – | – | – | 0.0682 | – | 0.0596 | 0.0891 | 0.0616 | – | 0.0622 | – | – | – | – |
| E223W | 0.0567 | 0.0687 | 0.0561 | 0.0515 | 0.0666 | – | 0.049 | 0.0609 | 0.0543 | 0.0542 | 0.0598 | 0.07 | 0.0606 | 0.0666 | 0.0586 | – | 0.0524 | – | 0.0576 |
| E223S | – | – | 0.0624 | 0.0372 | – | 0.101 | 0.065 | 0.0593 | 0.0635 | 0.0482 | 0.0525 | 0.056 | – | 0.0706 | 0.0643 | – | 0.0606 | – | – |
| E231F | 0.0652 | 0.0676 | 0.0629 | – | – | – | 0.0669 | – | – | 0.0548 | 0.0616 | – | 0.098 | 0.0522 | 0.0561 | 0.0631 | 0.0642 | – | – |

| Variant | area with substrate ENCYFQS | area with substrate ENDYFQS | area with substrate ENEYFQS | area with substrate ENFYFQS | area with substrate ENGYFQS | area with substrate ENIYFQS | area with substrate ENKYFQS | area with substrate ENNYFQS | area with substrate ENQYFQS | area with substrate ENRYFQS | area with substrate ENSYFQS | area with substrate ENTYFQS | area with substrate ENVYFQS | area with substrate ENWYFQS | area with substrate ENAYFQS | area with substrate ENPYFQS | area with substrate ENHYFQS | area with substrate ENMYFQS | area with substrate ENYYFQS |
| --- | --- | --- | --- | --- | --- | --- | --- | --- | --- | --- | --- | --- | --- | --- | --- | --- | --- | --- | --- |
| F218M | – | 0.0609 | 0.0622 | 0.0666 | – | 0.102 | – | 0.0567 | 0.0577 | 0.0496 | – | – | – | – | 0.0756 | 0.0625 | – | – | – |
| H47Q | 0.0636 | 0.056 | 0.0672 | 0.0785 | 0.0979 | – | 0.0563 | 0.0652 | 0.0558 | 0.052 | 0.0569 | 0.066 | 0.059 | – | – | – | 0.0579 | – | 0.0668 |
| S17I | 0.0687 | 0.0578 | 0.0596 | – | 0.059 | 0.124 | 0.0691 | 0.0617 | 0.0579 | – | 0.0662 | – | 0.0739 | – | – | 0.0584 | 0.049 | – | 0.0768 |
| V210R | 0.0615 | 0.0647 | 0.0522 | 0.049 | – | 0.126 | – | – | – | 0.0506 | 0.0583 | – | 0.0516 | – | 0.0628 | – | 0.0848 | 0.0705 | – |
| V210H | – | 0.078 | – | 0.0678 | 0.0544 | 0.0681 | – | 0.0522 | 0.0535 | 0.0399 | – | – | 0.075 | – | 0.0643 | – | – | 0.0739 | – |
| G2R | 0.076 | 0.0318 | 0.0614 | – | – | 0.144 | – | – | 0.0635 | – | – | 0.0539 | 0.0698 | – | – | – | – | – | – |
| L205K | 0.0629 | – | 0.0712 | – | – | 0.0649 | – | 0.0616 | 0.0505 | 0.0485 | 0.0801 | 0.066 | – | – | 0.0526 | 0.0681 | – | – | – |
| R204S | 0.0662 | 0.058 | 0.0226 | 0.0686 | 0.0694 | 0.0816 | – | 0.0519 | 0.0604 | 0.0582 | 0.0686 | 0.0682 | 0.0888 | – | 0.0507 | – | 0.0771 | 0.0851 | 0.0676 |
| A207G | – | 0.0703 | – | – | 0.062 | – | 0.0272 | – | 0.0622 | 0.0663 | 0.0491 | 0.0662 | – | – | 0.0694 | – | 0.0688 | – | – |
| A207Q | 0.0555 | – | 0.0623 | 0.0645 | – | – | 0.0594 | – | 0.0691 | – | 0.0692 | – | – | – | 0.0627 | 0.0588 | 0.0475 | – | – |
| A207W | 0.0548 | 0.0799 | 0.0646 | – | – | 0.0847 | 0.0551 | – | 0.058 | 0.0455 | 0.0554 | 0.0615 | – | – | 0.0654 | 0.062 | – | – | 0.0501 |
| L235K | 0.0757 | 0.0622 | – | – | – | – | – | – | 0.0593 | 0.0608 | 0.0435 | – | – | – | 0.0579 | 0.0695 | – | 0.118 | – |
| F226R | – | 0.0667 | 0.0581 | 0.064 | 0.0645 | 0.118 | 0.0591 | 0.049 | 0.0541 | 0.054 | 0.0519 | – | 0.0708 | – | 0.0635 | 0.0749 | 0.0597 | – | – |
| L5C | 0.0911 | 0.0422 | 0.0557 | – | 0.0451 | – | 0.0605 | 0.0676 | – | 0.0489 | – | – | 0.0761 | – | – | – | – | 0.003 | – |
| L5K | 0.0772 | 0.0515 | 0.0575 | 0.0586 | 0.0462 | – | – | 0.0584 | 0.0362 | – | 0.0673 | 0.0679 | 0.0837 | 0.0505 | – | – | – | – | 0.0685 |
